Measurements: the supplement of paper PMC11417369
± gives the standard deviation of the averaged measurements. This is one part of the list.

What follows are sequences tested on PfAP2-I AP2 domain 3 (GST-tagged) (assay: gcPBM binding intensity (ln(normalized median fluorescence intensity)); higher = stronger DNA binding).
Summary of the method: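 GST-fused DNA-binding domains of P. falciparum, expressed in E. coli, were applied at about 25 μg on average for 1 h to an Agilent 4 × 180k array of primer-extended double-stranded 36-bp intergenic genomic probes and negative controls. Binding intensity is the highest Masliner-normalised natural-log median intensity across replicate spots of either probe orientation, measured with Alexa488 anti-GST antibody and a 488 nm scan.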

| Sequence | gcPBM binding intensity (ln) |
| --- | --- |
| AAAATTAACGAGTGCACACATATTTAGATAAAATAC [CACACA_site2936] | 9.99 ± 0.19 |
| AAAATTAAACATACATCACACATGCATTATATTATG [CACACA_site5517] | 7.99 ± 0.78 |
| AAAAAACTTCACATATGTACTTAAAAAAAATTAAAA [XGTACX_site2368] | 7.79 ± 0.16 |
| GAACATTACGTAAATAAATAAATAAAAATAAATACA [XGTACX_negctrl_site25] | 7.63 ± 0.43 |
| ATAAAGTCTATATTATGTACATATAATATAAATATT [XGTACX_site6703] | 8.16 ± 0.28 |
| CAAAAAAAAATCTGTAGTACTTATTAATATTGCTGT [XGTACX_site4767] | 7.72 ± 0.18 |
| TATTGTCTTGTATATGCATGTAGACCAAATATGTAA [TGCATGCA_site9] | 8.05 ± 0.56 |
| AAATCAAATTTTTAGAGTACTTAAGTTTTCTATATA [XGTACX_site7827] | 7.63 ± 0.5 |
| ATCACAAAAAAGTTCATACACACAACCTATTTATAT [CACACA_site2888] | 7.76 ± 0.57 |
| TCCCCATATGTTTTGTGTACATATATATTTTTTTGT [XGTACX_site75] | 8.46 ± 0.3 |
| TAATATATTAATATATGTACATATTTATATATCTAC [XGTACX_site7117] | 7.88 ± 0.46 |
| GGAAAAAAATAAAATAAGTATTTTACATACATATTG [TGCATGCA_negctrl_site10] | 7.24 ± 0.49 |
| ATATATTTTTATATAGTGCAAGTAATAAAAAGGAAT | 10.04 ± 0.099 |
| ATATCATTTTATTTGTGTACTTAAAAAGTTGCAATG [XGTACX_site4099] | 8.1 ± 0.26 |
| AAAACTTTTTTAACAGAAAAATAGGGATACAATATA [CACACA_negctrl_site1708] | 7.96 ± 0.44 |
| ATAACATTCAAAAAATGTACAAACATATGAATAAAT [XGTACX_site7013] | 7.75 ± 0.52 |
| GGAATAACCAGACACACACACACATATAAATATGTA [CACACA_site7632] | 7.82 ± 0.52 |
| TAAATACAAGAACTGACACACATACATACTACATTT [CACACA_site5561] | 7.7 ± 0.49 |
| AAATAGTTGTTAAAGGTGCACAATATGGATATAAGA | 11.5 ± 0.38 |

| Sequence | gcPBM binding intensity (ln) |
| --- | --- |
| TGAAAATATATAACGCGTACAAAAAGGAAATACAAT [XGTACX_site3534] | 8.38 ± 0.64 |
| TTTTTTTTTTTTTTTGCATGTTGAAAATAAAATTAT [TGCATGCA_site86] | 8.18 ± 0.71 |
| ATTTATTTTAAATAAGTGCAAAATGGTTATAAATAA | 9.72 ± 0.16 |
| ATGTACTATAGGCACACACACTCACATATATATATA [CACACA_site5745] | 9.64 ± 0.27 |
| AAAATTTCAATAAATACACACATATAAATATAGATT [CACACA_site6893] | 7.46 ± 0.37 |
| ATAAATATTTTGTAAGCATGCTTTTAAAAAAAGAAA [TGCATGCA_site572] | 7.59 ± 0.51 |
| ATTATATATATATTATGTACATATATTGAAGTGGAT [XGTACX_site5916] | 8.21 ± 0.38 |
| ACGGATTAAAAAATGTGTACGCACAAAAAAAAAAAT [XGTACX_site8259] | 8.71 ± 0.27 |
| TACGAAATCATATGTACACACACATATATATATATA [CACACA_site5216] | 9.53 ± 0.42 |
| TGTTCAGTATTGCACACACACAACAAAATAAAAAAA [CACACA_site6314] | 10.3 ± 0.81 |
| ATATATATATATATATGTACTTAATGTTATTATATA [XGTACX_site4508] | 9.26 ± 0.47 |
| GAAATGTGATAATATACACACACGCATATATATATA [CACACA_site4332] | 9.27 ± 0.099 |
| TATACATATATATATATATATAGATATATTCACGTG [XGTACX_negctrl_site265] | 7.79 ± 0.43 |
| TTTTTAAAAAGTAACACACACTCTTATATATAATGA [CACACA_site3618] | 7.82 ± 0.41 |
| AAAAAAAACAGACACACACACATAAATATAAATAAA [CACACA_site6214] | 7.71 ± 0.39 |
| AAAATAATAATAAATGCATGTGTTGTTTACTAAGAA [TGCATGCA_site528] | 8.2 ± 0.76 |
| CTCCATATTAGACACACACACAAATGAAAAAAATAT [CACACA_site7420] | 8.13 ± 0.45 |
| TAAAATTAAACAAAAAAAAAGAAAAAAAAAAAAAAG [CACACA_negctrl_site1098] | 7.62 ± 0.41 |
| TGAACATACATCAAAAGTACAAACTCGCATGTTATA [XGTACX_site3320] | 7.5 ± 0.46 |

| Sequence | gcPBM binding intensity (ln) |
| --- | --- |
| TACCTATACAGACACACACACACACGCCCACAAAAA [CACACA_site6375] | 8.34 ± 0.23 |
| TTTTTATATTTATATAAATAAAAAAATAACAAAATG [XGTACX_negctrl_site231] | 8.02 ± 0.4 |
| AATGTAGACACATATGTACACACATATATATGTATA [CACACA_site9014] | 7.82 ± 0.34 |
| AATATTCTATATGATACATGCATGATGGAATAAAAA [TGCATGCA_site980] | 8.31 ± 0.71 |
| TTTTGGTATACGTAATTATATAATATGTTAATCAAT [CACACA_negctrl_site645] | 7.86 ± 0.36 |
| CCGCCATTGTACCATCCACACACATATATATATGTA [CACACA_site8866] | 8.61 ± 0.43 |
| TTTGTTCTTTTTGAAGTGCACTGAAATATAACAAAA | 11.3 ± 0.16 |
| AAAAAAACACACACATATATATATATATATATATAT [GTGCAC_negctrl_site498] | 9.36 ± 0.4 |
| AAGAAAAAGAATAACCTTATTTCTATATACTAATTT [TGCATGCA_negctrl_site477] | 7.3 ± 0.61 |
| ATCAAAATTGTCATTACACACCTTTATTTTTATAAT [CACACA_site5071] | 8.05 ± 0.61 |
| AATAATATATGGACATGTACATAATATATATTTTTT [XGTACX_site312] | 7.72 ± 0.19 |
| TGTTTTATTTATTAAGCACACGCGATTTAAAAAATA [CACACA_site981] | 8.775 ± 0.049 |
| TTCATATAATTCATCTGTACATATTGATAGTATGCA [XGTACX_site6386] | 7.7 ± 0.16 |
| TCAAATGTGTAATCTTGTACACATTAAAAGAAAAAA [XGTACX_site8822] | 7.79 ± 0.57 |
| ATATATATATATATATGTACATATGTCAACTGTCTA [XGTACX_site8636] | 9.41 ± 0.3 |
| CATACATACAAACACACACACATATATATACATACA [CACACA_site852] | 7.96 ± 0.38 |
| TATGTATTAATGAGAACATGCAAAATAATAAACAAT [TGCATGCA_site362] | 8.45 ± 0.59 |
| ATATATCAAATAGACAAACACACAAAGGAAGAGTGA [CACACA_site3922] | 7.82 ± 0.48 |
| CACAGACACGGACACACACACACACCCAGACACATA [CACACA_site4357] | 8.31 ± 0.21 |
